For assay [1], the system named is A498. The experiment in a line: Proliferation dose-response IC50, A498. The format is cell-based. The settings on record: Homo sapiens. Here is the method:
(§1) Error bars indicate standard deviation for n=2 replicates. […] To evaluate inhibition of SCD1 by these molecules, we used LC/MS to quantify changes in SCD1-catalyzed conversion of stearoyl-CoA to oleoyl-CoA in response to drug treatments in vitro using SCD1 protein extracted from murine liver (Figure 3c, Supplementary Figure 2g). […] Synthesis routes and spectral data including NMR and MS are also provided (Supplementary Figures 3-6).
(§2) Cells were seeded at 5,000 cells/well in clear-bottom 96-well plates in triplicate. Drug treatment was applied at 1:1000 in reduced serum conditions (3%). […] Alternatively, cells were plated 2x10^5/well in 12-well plates (Genesee Scientific) in triplicate prior to drug treatment. After 120-hour treatment, cell number was established using a Coulter Particle Counter (Beckman). Oleic acid-albumin (Sigma Aldrich) was added to media at 5µM, and was applied adjuvant to drug treatment. Drug stocks were prepared in DMSO (Sigma) at 1000x. IC50 dosing per cell line was calculated using CalcuSyn analytical software.

The test system of assay [2] is ACHN. The experiment in a line: Proliferation dose-response IC50, ACHN. It is filed as cell-based. The settings on record: Homo sapiens, read-out: IC50 (μM) ACHN. Here is the method: as §1, §2
The test system of assay [3] is Caki1. The experiment in a line: Proliferation dose-response IC50, Caki1. The format is cell-based. The settings on record: Homo sapiens, CAKI-1, read-out: IC50 (μM) Caki1. Here is the method: as §1, §2
In assay [4] the test system is Caki2. The experiment in a line: Proliferation dose-response IC50, Caki2. It is filed as cell-based. The conditions noted are these: Homo sapiens, CAKI-2, read-out: IC50 (μM) Caki2. Here is the method: as §1, §2
Assay [5] has as its target T1, SCD1 protein extracted from murine liver (Mus musculus, UniProt P13516).
T1 construct: Microsomes were isolated from murine liver using Microsome Isolation Kit (BioVision); from tissue; host or cells: murine liver microsomes
T1 sequence (P13516 1-355): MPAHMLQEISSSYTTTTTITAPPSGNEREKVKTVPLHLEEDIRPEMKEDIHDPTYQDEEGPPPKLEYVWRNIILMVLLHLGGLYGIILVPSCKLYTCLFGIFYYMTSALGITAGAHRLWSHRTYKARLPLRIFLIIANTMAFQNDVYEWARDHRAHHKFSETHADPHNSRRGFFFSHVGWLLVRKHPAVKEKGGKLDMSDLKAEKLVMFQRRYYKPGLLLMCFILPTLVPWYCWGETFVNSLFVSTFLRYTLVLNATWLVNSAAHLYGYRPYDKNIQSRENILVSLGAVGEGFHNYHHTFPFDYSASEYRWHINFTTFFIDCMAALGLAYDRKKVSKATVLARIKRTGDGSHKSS
Put plainly: In vitro SCD1 enzymatic inhibition by LC/MS (stearoyl-CoA to oleoyl-CoA, liver microsomes). It is filed as biochemical. An excerpt: After synthesis feasibility and cost analysis, we synthesized 38 of the selected compounds. […] To evaluate inhibition of SCD1 by these molecules, we used LC/MS to quantify changes in SCD1-catalyzed conversion of stearoyl-CoA to oleoyl-CoA in response to drug treatments in vitro using SCD1 protein extracted from murine liver (Figure 3c, Supplementary Figure 2g). […] Synthesis routes and spectral data including NMR and MS are also provided (Supplementary Figures 3-6).
Microsomes were isolated from murine liver using Microsome Isolation Kit (BioVision) per the manufacturer protocol. […] To quantify biotransformation of ^13C18-stearoyl CoA to ^13C18-oleoyl CoA for drug treatments relative to vehicle controls, supernatants were evaluated using the LC/MS^2 acyl CoA quantitation method of Magnes et al. and adapting selected reaction monitoring (SRM) for isotope-labeled acyl CoAs. […] SRM signal areas for isotope-labeled acyl CoAs were measured relative to the heptadecanoyl CoA I.S. using XCalibur software (Thermo), and percent enzyme inhibition determined by comparing ^13C18-oleoyl CoA quantities between treatment and DMSO control assays. […]
For orientation: Liver microsomes are a subcellular fraction often used to study metabolism.

Where two headings read alike, the source gives them in different places.

For orientation: IC50 means the point on the concentration scale where inhibition reaches its midpoint. `CNC(=O)c1ccccc1OCC(=O)N1CCN(C(=O)c2ccccc2C(F)(F)F)CC1` [SSI-1]: the IC50 in assay [1] (A498, read-out: IC50 (μM) A498) was found to be 11.2 µM; in assay [2] it was 4.1 µM; in assay [3], 23.5 µM; in assay [4] it was 26.5 µM.
As to `O=C(Nc1ccc(OCc2ccccc2)nc1)N1CCN(C(=O)c2ccccc2C(F)(F)F)CC1` [SSI-2], the IC50 in assay [1] (A498, read-out: IC50 (μM) A498) is 2.5 µM; in assay [5], 23.3 nM; in assay [2], 0.25 µM; in assay [3], 3 µM; in assay [4], 2 µM.
As to `CNC(=O)c1cc(S(=O)(=O)N2CCC(Oc3ccccc3Cl)CC2)c[nH]1` [SetA.68], the IC50 in assay [1] (A498, proliferative IC50, linear regression modeling of dose-response, read-out: IC50 (μM) A498) turned out to be 0.04 µM.
With `O=C(NCc1ccnc(OCc2ccccc2)c1)N1CCN(C(=O)c2ccccc2C(F)(F)F)CC1` [SSI-3], the IC50 is 16 µM in assay [1] (A498, read-out: IC50 (μM) A498); more than 500 nM in assay [5] (murine liver microsomes, LC/MS, n=2, read-out: IC50 (nM), SCD1 enzymatic inhibition); 4 µM in assay [2]; 25 µM in assay [3]; 23 µM in assay [4].
